# Out of some 280,000 compounds screened, about 820 (0.29%) were called active. The inconclusive results got no clear call from the source; some entries with a clear call stand among them for comparison. Calls come from the whole dose curve; as a rule, active = well fitted curve in either direction with a large enough effect; inconclusive = small, poorly fitted or top-dose-only effect; inactive = flat fitted curve, though single readings scatter. No potency is given beside an inconclusive call; the fits are too rough.
# Test: Total Fluorescence Counterscreen for Inhibitors of the Interaction of Thyroid Hormone Receptor and Steroid Receptor Coregulator 2
# Conditions: TRb/SRC2 Texas Red total fluorescence interference; series mostly up to 106 µM; fluorescence change, negative = quenching: at the top concentration
# Method in brief: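 Flags fluorescent or light-absorbing compounds by total fluorescence, S + 2P, at 555 nm excitation and 632 nm emission. Mixture: 20 nM Texas Red SRC2 peptide, 0.6 uM human TRb LBD, 1 uM T3, 5% DMSO; compound exposure 5 h at ambient temperature.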
# % is set by controls: 0 for no effect and ±100 for the full control effect; potency is the fitted concentration of half-maximal effect; tags give direction and shape of the fitted curve or compound fluorescence and quenching.
SMILES,Potency,"fluorescence change, negative = quenching"
O=C(O)CCCCCNc1ccc2nsnc2c1[N+](=O)[O-],active: 35.5 µM [quencher],
CC(C)n1c(=S)[nH]c2cc(Cl)ccc21,"inconclusive [fluorescent, partial curve]",
CCOC(=O)c1ccc(-n2c(CCC(=O)O)ccc2-c2ccc(Br)cc2)cc1,,inactive: -1.9%
Cc1cc(Cl)ccc1OCC(=O)Nc1c(Cl)ccc2nsnc12,"inconclusive [quencher, full curve]",
CCOC(=O)c1cccc(NC(=O)NCc2cccn2Cc2ccccc2)c1,"inconclusive [falling, partial curve, poor fit]",
CCCCSc1nc(-c2ccc(OC)cc2)ccc1C#N,"inconclusive [quencher, full curve]",
O=C(CSc1nccn1C1CCCC1)Nc1cccc(F)c1,"inconclusive [falling, full curve, poor fit]",
CC(=O)Nc1ccc(Nc2nc(C)c([N+](=O)[O-])c(Nc3ccc(NC(C)=O)cc3)n2)cc1,,inactive: -3.06%
O=C(NC1(C(F)(F)F)C(=O)Nc2c1c(=O)[nH]c(=O)n2-c1ccccc1)c1ccccc1 (stereo unspecified),"inconclusive [falling, full curve, poor fit]",
COc1ccc2c(c1)cc1c(=O)n(CC(=O)NCCCOC(C)C)nc(C)n12,"inconclusive [falling, full curve, poor fit]",
COc1ccc(-c2noc(N3CCC(C(=O)N4CCN(c5ccccc5F)CC4)CC3)n2)cc1,active: 56.2 µM [quencher],
Cc1cccc(NC(=O)CCN2CCN(c3ccccc3F)CC2)c1,"inconclusive [falling, full curve, poor fit]",
COc1ccc(C2=CC3=C(Br)C(=O)C(C)(OC(=O)C4CCCC4)C(=O)C3=CO2)cc1 (stereo unspecified),"inconclusive [quencher, partial curve]",
COC(=O)c1csc(C(=O)c2c[nH]c3ccccc23)n1,inactive,
COc1ccc2oc(-c3ccc(C)c(NC(=O)c4ccc(-c5ccccc5[N+](=O)[O-])o4)c3)nc2c1,"inconclusive [falling, full curve, poor fit]",
Cc1c(Cl)cccc1NC(=O)CSc1nc2ncccc2o1,"inconclusive [falling, full curve, poor fit]",
O=C(CN1CCCC1)Nc1ccc(F)cc1,"inconclusive [quencher, partial curve]",
Cc1ccccc1CSCc1nc2ccccc2[nH]1,active: 1.12 µM [quencher],
CC(C)C[C@@H](CN(C)N=O)N(C[C@H](Cc1ccccc1)N(CCc1ccccc1)N=O)N=O,,inactive: -2.2%
COc1ccc(S(=O)(=O)NCCS(=O)(=O)N2CCN(c3ccccc3)CC2)cc1C,"inconclusive [falling, partial curve, poor fit]",
COc1ccc(C(=S)NCS(=O)(=O)c2ccc(C)cc2)cc1,,inactive: -0.234%

SMILES,Potency,"fluorescence change, negative = quenching"
CCCCC(=O)OCc1cc(=O)n2nc(C3CCCCC3)sc2n1,"inconclusive [falling, partial curve, poor fit]",
COc1cccc(CNC(=O)c2cc(S(=O)(=O)N3CCCCCC3)cn2C)c1,"inconclusive [falling, partial curve, poor fit]",
Cc1ccc(NC(=O)N2CCc3cc(S(=O)(=O)N4CCC(C)CC4)ccc32)cc1F,active: 28.2 µM [quencher],
COc1ccc(-c2cn3nc(N4CCCC(C(=O)Nc5cccc(Cl)c5C)C4)sc3n2)cc1 (stereo unspecified),"inconclusive [quencher, full curve]",
Cc1ccc(Cl)cc1NC(=O)N1CCC(CN2CCCCCC2)CC1,,inactive: 9.46%
CCCN(CCC)CC(O)Cn1cc(/C=C/C(=O)c2ccc(C)cc2)c2ccccc21 (stereo unspecified),,inactive: -5.14%
O=c1cc(-c2ccccc2Cl)oc2c(NS(=O)(=O)c3cc(Cl)cc(Cl)c3O)ccc(O)c12,"inconclusive [quencher, full curve]",
COC(=O)C/C=C1\c2ccccc2C(OC)C1C (stereo unspecified),,inactive: 0.104% [at 11.2 µM]
COc1cccc(N2CCN(c3ncnc4c3nc3n4CCCCC3)CC2)c1,"inconclusive [quencher, full curve]",
CCOC(=O)N1CCN(Cc2nc3cc(NC(=O)c4ccccc4[N+](=O)[O-])ccc3n2C(C)C)CC1,active: 8.91 µM [quencher],
O=C(COCc1cc(-c2ccc3c(c2)OCO3)on1)N1CCN(c2cccc(Cl)c2)CC1,"inconclusive [quencher, full curve]",
Cc1ccc(S(=O)(=O)N(Cc2nc(-c3cccc(C)c3)no2)C2CCCCC2)cc1,"inconclusive [falling, partial curve, poor fit]",
Clc1ccc2c(c1)NC(c1ccncc1)=NC(c1cccs1)=N2,,inactive: -1.54%
N#Cc1c(-c2ccc(Cl)cc2)c(C#N)c(=O)n(N)c1N,"inconclusive [falling, partial curve, poor fit]",
Cc1ccccc1NC(=S)N(CCc1c(C)[nH]c2ccc(F)cc12)Cc1cccnc1,,inactive: -1.78%
COc1ccc(-c2oc3ncn4nc(-c5ccccc5OC)nc4c3c2-c2ccc(OC)cc2)cc1,"inconclusive [falling, full curve, poor fit]",
COC(=O)C/C=C\[C@@H](C)[C@@H](/C=N\O[C@@H](C)CN1CCCc2nc(C)c(C)cc21)NS(=O)(=O)c1ccc(C)cc1,"inconclusive [quencher, full curve]",
CCCOc1ccc(C(=O)N(Cc2ccc(Cl)cc2)Cc2ccco2)cc1,"inconclusive [falling, partial curve, poor fit]",
O=C(NCc1cccs1)c1ccc2c(c1)sc1nc(-c3ccccc3)cn12,"inconclusive [falling, partial curve, poor fit]",
O=C(NC1CCCCC1)c1ccc2c(c1)N(Cc1ccc(F)cc1)C(=O)c1ccccc1S2(=O)=O,"inconclusive [falling, full curve, poor fit]",

# Reference: PubChem BioAssay AID1479 (National Center for Advancing Translational Sciences (NCATS), 2009)
